For assay [1], the system named is whole optic nerves isolated from adult rats. The experiment in a line: extracellular glutamate levels in isolated optic nerve perfused with transporter inhibitor. Further details: species or system rat. Here is the method: In order to determine if the inhibition of glutamate transporters is toxic for oligodendrocytes in a preparation of in situ nervous tissue, whole optic nerves isolated from adult rats were perfused with TBOA in aCSF for 6 hours.

The subject of assay [2] is GLAST and GLT-1 glutamate transporters. The experiment in a line: whole cell patch clamp recording of glutamate transporter currents in cultured oligodendrocytes. Format: cell-based, rat. As to conditions: TBOA 1 mM. Here is the method: Electrophysiological recordings were carried out on 2 to 5 days-old cultures, following previously published protocols (Patneau et al., 1994, Neuron 12, 357-371). Cells were registered in a chamber which allows changing the composition of the extracellular medium by means of constant flow (0.5 to 1 ml/minute). Registering electrodes used were glass capillaries containing specific solutions compatible with cytoplasmic ionic concentrations. The study of the responses mediated by the glutamate transporters was carried out using whole cell patch clamp.
A general note: Patch clamp records ionic current or voltage across a cell membrane.

Assay [3] relates to whole optic nerves isolated from adult rats. The experiment in a line: oligodendrocyte death (chromatin condensation, caspase-3) in isolated optic nerve in situ.
Assay [4] relates to oligodendrocytes. In words: oligodendroglial death in vitro after inhibition of glutamate transporters. It counts as cell-based, rat. The conditions noted are these: CTZ 100 μM. As for the experimental part: Cell cultures were prepared from 12 days-old rat optic nerve following standard protocols, which have been adapted and introduced into the laboratory as recently reported (Matute et al., 1997, Proc. Natl. Acad. Sci. USA 94: 8830-8835).

For assay [5], the system named is EAAT1 (GLAST). In words: expression in isolated optic nerve after stimulation with glutamate. The arrangement: species or system rat. As to conditions: glutamate 1 mM, 3 hours of incubation.
Assay [6] relates to EAAT2 (GLT-1). Described as above. The arrangement: species or system rat. The conditions noted are these: glutamate 1 mM, 3 hours of incubation.

Each structure is given as a SMILES string.

The EC50 is the concentration that produces a half-maximal response. As to `N[C@H](C(=O)O)[C@H](OCc1ccccc1)C(=O)O` (racemic) [TBOA, DL-threo-β-benzyloxyaspartate], the “extracellular levels of glutamate” value in assay [1] (maximal concentration of TBOA, 6 hours) is on record as “doubled”. Further, the EC50 in assay [1] (perfusion in aCSF for 6 hours, read-out: increase of extracellular levels of glutamate EC50) stood at 78.2 µM; in assay [3] (read-out: cells showing chromatin condensation and activation of caspase-3, EC50, perfusion in aCSF for 6 hours) it was 113 µM. Further, the “effect on currents induced by glutamate or aspartate” value in assay [2] is “inhibited”. The “increase in number of cells showing chromatin condensation and activation of caspase-3 versus control nerves” value in assay [3] (perfusion in aCSF for 6 hours) was greater than 3 fold.
For the compound `N#Cc1cc2c(cc1[N+](=O)[O-])=NC(=O)C(=O)N=2` [CNQX, 6-cyano-7-nitroquinoxalin-2,3-dione], in assay [3] (incubation with TBOA in the presence of CNQX 30 μM), the “effect on TBOA-induced oligodendrocyte death in optic nerve” value is listed as “prevents oligodendrocyte death”.
Consider `NS(=O)(=O)c1cc2c(cc1Cl)NC(C1CC3C=CC1C3)NS2(=O)=O` (stereo not drawn) [cyclothiazide], for which the “effect on TBOA-induced oligodendroglial death” value in assay [4] is “enhanced”.
As for `N[C@@H](CCC(=O)O)C(=O)O` [glutamate], the “expression of EAAT1 (GLAST) transporter” value in assay [5] is on record as “increase”. For the same compound, the “expression of EAAT2 (GLT-1) transporter” value in assay [6] was “increase”.

Values taken from patent publication US7879568B2, “Method for the diagnosis and prognosis of demyelinating diseases” (Universidad Del Pais Vasco, priority 2005, dated 2011).
